Test results from US20220117938A1, “COMBINATON THERAPY WITH A DON PRODRUG AND AN IMMUNE CHECKPOINT INHIBITOR” (DRACEN PHARMACEUTICALS, INC., priority 2019, published 2022).
Further values from the same series stand in other lists.

Assays:
MC-38 tumors = experiment: Anti-tumor efficacy of Compound 1 with and without anti-PD-1 in the subcutaneous MC-38 model (Example 4); type: in vivo, Mus musculus
Procedure: Tumor sizes were measured three times a week in two dimensions using a caliper, and the volume expressed in mm^3 using the formula: V=0.5 a×b^2 where a and b are the long and short diameters of the tumor, respectively. The tumor sizes were then used for the calculations of both tumor growth inhibition (TGI) and T/C values.
TGI is calculated for each group using the formula: […]
TVTreatment_DayN is the average tumor volume of a treatment group on a given day, TVTreatment_Day0 is the average tumor volume of the treatment group on the first day of treatment, TVVehicle_DayN is the average tumor volume of the vehicle control group on a given day, and TVVehicle_Day0 is the average tumor volume of the vehicle group on the first day of treatment.
The T/C value (in percent) is an indication of antitumor effectiveness, T/C (%)=RTVTreatment/RTVControl×100% (RTVTreatment: the mean RTV of the treatment group; RTVControl: the mean RTV of the vehicle treated group). RTV (relative tumor volume)=TVDayN/TVDay0. TVDayN and TVDay0 is the tumor volume on day N and Day 0 respectively. T/C (%)≤42% is considered as significant antitumor activity and <10% is considered as highly significant antitumor activity by the National Cancer Institute criteria.
Animal survival curve: When an individual animal reached to the termination endpoint (TV>2000 mm^3), the mouse was euthanized. The time from treatment initiation to the termination was deemed as its survival time. Survival curve was plotted by Kaplan-Meier method. Median survival time (MST) was calculated for each group. Increase of life span (ILS) was calculated according to the following formula: […]
ILS (%)>25% is considered as a biologically significant survival benefit.
The tumor volume between different groups was analyzed by two-way repeated measures ANOVA. Dunnett post hoc test was used for the comparisons with vehicle group. All data analyzed using GraphPad Prism 6.0. P<0.05 is considered to be statistically significant.
Female C57BL/6 mice were inoculated subcutaneously at right flank with MC-38 cells for tumor development. Six days after tumor inoculation, 64 mice with tumor size ranging from 50-100 mm^3 (average tumor size 71 mm^3) were selected and assigned into 8 groups using stratified randomization with 8 mice per group based upon their tumor volumes. The treatments were started from the day of randomization (defined as D0), Group 1 was treated with Vehicle (Tween 80:Ethanol:Saline—5:5:90 v/v/v), s.c., qd×14, Group 2 was treated with Anti-PD-1 10 mg/kg i.p. q4d×4, Group 3 was treated with Compound 1 3 mpk qd×5, sc followed by 1 mpk, qd×9, sc, Group 4 was treated with Compound 1 3 mpk qd×5, sc followed by 1 mpk, qd×9, sc+anti PD-1 q4d×4, ip, Group 5 was treated with Compound 1 1 mpk qd×5, sc followed by 0.3 mpk, qd×9, sc, Group 6 was treated with Compound 1 1 mpk qd×5, sc followed by 0.3 mpk, qd×9, sc+anti PD-1 q4d×4, ip, Group 7 was treated with Compound 1 0.3 mpk qd×5, sc followed by 0.1 mpk, qd×9, sc and Group 8 was treated with Compound 1 0.3 mpk qd×5, sc followed by 0.1 mpk, qd×9, sc+anti PD-1 q4d×4, ip. The tumor sizes were measured three times per week during the treatment. The entire study was terminated on D56 after start of the treatment. […]
The MC-38 tumor cells were maintained in vitro as a monolayer culture in DMEM medium supplemented with 10% heat inactivated fetal bovine serum and 100 μg/mL penicillin streptomycin at 37° C. in an atmosphere of 5% CO2 in air. The tumor cells were routinely subcultured twice weekly by trypsin-EDTA treatment. The cells growing to a confluency around 70%-80% were harvested and counted for tumor inoculation. The cultured MC-38 were harvested, re-suspended in base medium at a density of 1×10^7 cells/mL with viability >90%. Each mouse was inoculated subcutaneously at the right flank with 1×10^6 cells in 0.1 ml base medium for tumor development. […]

CT26.WT tumors = experiment: Anti-tumor efficacy of Compound 1 and Compound 1 in combination with anti-PD-1 in the CT26.WT syngeneic model (Example 10); type: in vivo, mice
Procedure: Female BALB/c mice were inoculated subcutaneously in the right flank with CT26.WT cells for tumor development. Six days after tumor inoculation, mice with tumor sizes ranging from 30-81 mm^3 (average tumor size 55 mm^3) were selected and assigned into 10 groups using stratified randomization with 8 mice per group based upon their tumor volumes. The treatments were started from the day of randomization (defined as D0), Group 1 was treated with Vehicle control, 10 mpk, SC, qd 5 days on (Mon-Fri)×4 cycles; Group 2 was treated with Anti-PD-1, 10 mpk, IP, q4d×6; Group 3 was treated with Compound 1, 1.4 mpk, SC, qd 5 days on (Mon-Fri)×4 cycles; Group 4 was treated with Compound 1+anti-PD-1, 1.4 mpk+10 mpk, SC, qd 5 days on (Mon-Fri)×4 cycles+IP, q4d×6; Group 5 was treated with Compound 1, 10.5 mpk, IV, biw (Mon, Thu)×4 cycles; Group 6 was treated with Compound 1+anti-PD-1, 10.5 mpk+10 mpk, IV, biw (Mon, Thu)×4 cycles+IP, q4d×6; Group 7 was treated with Compound 1, 7 mpk IV, tiw (Mon, Wed, Fri)×4 cycles; Group 8 was treated with Compound 1+anti-PD-1, 7 mpk+10 mpk, IV, tiw (Mon, Wed, Fri)×4 cycles+IP, q4d×6; Group 9 was treated with Compound 1, 7 mpk IV, tiw (Mon, Tue, Wed)×4 cycles; and Group 10 was treated with Compound 1+anti-PD-1, 7 mpk+10 mpk, IV, tiw (Mon, Tue, Wed)×4 cycles+IP, q4d×6. The tumor sizes were measured three times per week during the treatment. Survival was monitored with tumor volume exceeding 2000 mm^3 as endpoint. The entire study was terminated on D56 after start of the treatment. All treatments were well-tolerated without any adverse effects or significant body weight loss.

For `CC(=O)N[C@@H](Cc1c[nH]c2ccccc12)C(=O)N[C@@H](CCC(=O)C=[N+]=[N-])C(=O)OC(C)C` [Compound 1, Isopropyl (S)-2-((S)-2-acetamido-3-(1H-indol-3-yl)propanamido)-6-diazo-5-oxohexanoate], the “Tumor volume (Mean ± SEM)” value (MC-38 tumors; Day 0, Cpd. 1 0.3 mpk qdx5 followed by 0.1 mpk qdx9, sc) was 72 ± 5 mm^3, the “Tumor volume (Mean ± SEM)” value (MC-38 tumors; Day 0, Cpd. 1 1 mpk qdx5 followed by 0.3 mpk qdx9, sc) was 71 ± 5 mm^3 and the “Tumor volume (Mean ± SEM)” value (MC-38 tumors; Day 0, Cpd. 1 3 mpk qdx5 followed by 1 mpk qdx9, sc) was 70 ± 4 mm^3. The “Tumor volume (Mean ± SEM)” value (MC-38 tumors; Day 2, Cpd. 1 0.3 mpk qdx5 followed by 0.1 mpk qdx9, sc) was 86 ± 11 mm^3, the “Tumor volume (Mean ± SEM)” value (MC-38 tumors; Day 2, Cpd. 1 1 mpk qdx5 followed by 0.3 mpk qdx9, sc) was 67 ± 5 mm^3 and the “Tumor volume (Mean ± SEM)” value (MC-38 tumors; Day 2, Cpd. 1 3 mpk qdx5 followed by 1 mpk qdx9, sc) was 63 ± 7 mm^3. The “Tumor volume (Mean ± SEM)” value (MC-38 tumors; Day 5, Cpd. 1 0.3 mpk qdx5 followed by 0.1 mpk qdx9, sc) was 72 ± 6 mm^3, the “Tumor volume (Mean ± SEM)” value (MC-38 tumors; Day 5, Cpd. 1 1 mpk qdx5 followed by 0.3 mpk qdx9, sc) was 38 ± 3 mm^3 and the “Tumor volume (Mean ± SEM)” value (MC-38 tumors; Day 5, Cpd. 1 3 mpk qdx5 followed by 1 mpk qdx9, sc) was 25 ± 4 mm^3. The “Tumor volume (Mean ± SEM)” value (MC-38 tumors; Day 7, Cpd. 1 0.3 mpk qdx5 followed by 0.1 mpk qdx9, sc) was 70 ± 9 mm^3, the “Tumor volume (Mean ± SEM)” value (MC-38 tumors; Day 7, Cpd. 1 1 mpk qdx5 followed by 0.3 mpk qdx9, sc) was 27 ± 5 mm^3 and the “Tumor volume (Mean ± SEM)” value (MC-38 tumors; Day 7, Cpd. 1 3 mpk qdx5 followed by 1 mpk qdx9, sc) was 19 ± 3 mm^3. For the same compound, the “Tumor volume (Mean ± SEM)” value (MC-38 tumors; Day 9, Cpd. 1 0.3 mpk qdx5 followed by 0.1 mpk qdx9, sc) was 76 ± 12 mm^3, the “Tumor volume (Mean ± SEM)” value (MC-38 tumors; Day 9, Cpd. 1 1 mpk qdx5 followed by 0.3 mpk qdx9, sc) was 25 ± 4 mm^3 and the “Tumor volume (Mean ± SEM)” value (MC-38 tumors; Day 9, Cpd. 1 3 mpk qdx5 followed by 1 mpk qdx9, sc) was 12 ± 2 mm^3. The “Tumor volume (Mean ± SEM)” value (MC-38 tumors; Day 12, Cpd. 1 0.3 mpk qdx5 followed by 0.1 mpk qdx9, sc) was 114 ± 25 mm^3, the “Tumor volume (Mean ± SEM)” value (MC-38 tumors; Day 12, Cpd. 1 1 mpk qdx5 followed by 0.3 mpk qdx9, sc) was 27 ± 7 mm^3 and the “Tumor volume (Mean ± SEM)” value (MC-38 tumors; Day 12, Cpd. 1 3 mpk qdx5 followed by 1 mpk qdx9, sc) was 8 ± 2 mm^3. The Tumor volume (CT26.WT tumors; Group 3, 1.4 mpk SC qd Mon-Fri x4 cycles, day 4) was 55 ± 5 mm^3, the Tumor volume (CT26.WT tumors; Group 3, 1.4 mpk SC qd Mon-Fri x4 cycles, day 7) was 89 ± 9 mm^3 and the Tumor volume (CT26.WT tumors; Group 3, 1.4 mpk SC qd Mon-Fri x4 cycles, day 9) was 108 ± 11 mm^3. It also gave a Tumor volume (CT26.WT tumors; Group 5, 10.5 mpk IV biw x4 cycles, day 4) of 56 ± 7 mm^3, a Tumor volume (CT26.WT tumors; Group 5, 10.5 mpk IV biw x4 cycles, day 7) of 71 ± 12 mm^3 and a Tumor volume (CT26.WT tumors; Group 5, 10.5 mpk IV biw x4 cycles, day 9) of 92 ± 13 mm^3. For the same compound, the Tumor volume (CT26.WT tumors; Group 7, 7 mpk IV tiw (Mon,Wed,Fri) x4 cycles, day 4) was 74 ± 12 mm^3, the Tumor volume (CT26.WT tumors; Group 7, 7 mpk IV tiw (Mon,Wed,Fri) x4 cycles, day 7) was 81 ± 14 mm^3 and the Tumor volume (CT26.WT tumors; Group 7, 7 mpk IV tiw (Mon,Wed,Fri) x4 cycles, day 9) was 106 ± 21 mm^3. It also gave a Tumor volume (CT26.WT tumors; Group 9, 7 mpk IV tiw (Mon,Tue,Wed) x4 cycles, day 2) of 40 ± 2 mm^3, a Tumor volume (CT26.WT tumors; Group 9, 7 mpk IV tiw (Mon,Tue,Wed) x4 cycles, day 4) of 48 ± 5 mm^3 and a Tumor volume (CT26.WT tumors; Group 9, 7 mpk IV tiw (Mon,Tue,Wed) x4 cycles, day 7) of 53 ± 8 mm^3. For the same compound, the Tumor volume (CT26.WT tumors; Group 9, 7 mpk IV tiw (Mon,Tue,Wed) x4 cycles, day 9) was 58 ± 14 mm^3.
